The other results are listed elsewhere or left out. These are noisy estimates, calculated here from bound and input reads.
What follows are sequences tested against T1, Pho4 (S. cerevisiae) (UniProt P07270) (assay: relative binding free energy (BET-seq); higher = weaker binding). Conditions: reference: library average.
T1 sequence: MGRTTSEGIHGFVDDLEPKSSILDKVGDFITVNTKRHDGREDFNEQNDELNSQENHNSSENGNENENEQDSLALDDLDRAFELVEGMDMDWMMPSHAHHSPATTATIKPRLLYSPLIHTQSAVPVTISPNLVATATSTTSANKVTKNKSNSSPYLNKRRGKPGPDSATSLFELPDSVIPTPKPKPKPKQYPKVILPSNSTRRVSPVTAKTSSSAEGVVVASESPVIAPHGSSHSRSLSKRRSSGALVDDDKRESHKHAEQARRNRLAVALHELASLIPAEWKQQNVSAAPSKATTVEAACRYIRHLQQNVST
For GGGCTCACGTGAGTAG, the “relative binding free energy” value was 0.38 kcal/mol.
In the case of ACGGGCACGTGTAGGT, the “relative binding free energy” value is reported as -0.07 kcal/mol.
With GTGTACACGTGTTTGA the “relative binding free energy” value was 0.1 kcal/mol.
With AATGTCACGTGTGCGA the “relative binding free energy” value was 0.18 kcal/mol.
For AAAAACACGTGGTAGG, the “relative binding free energy” value was 0 kcal/mol.
With AAGGGCACGTGTGTTA the “relative binding free energy” value was -0.19 kcal/mol.
TCTTTCACGTGTGCAG was tested, and the “relative binding free energy” value was 0.26 kcal/mol.
For CATGGCACGTGGTGCA, the “relative binding free energy” value was -0.2 kcal/mol.
With AAGAACACGTGGGTGT the “relative binding free energy” value was -0.11 kcal/mol.
For CGGATCACGTGCTGGG, the “relative binding free energy” value was 0.06 kcal/mol.
In the case of CCAGTCACGTGGTGTG, the “relative binding free energy” value is reported as -0.08 kcal/mol.
With TTTAACACGTGGTGGA the “relative binding free energy” value was -0.12 kcal/mol.
For GTGTCCACGTGGATGG, the “relative binding free energy” value was -0.02 kcal/mol.
For GTATCCACGTGATTTG, the “relative binding free energy” value was 0.22 kcal/mol.
With TTTATCACGTGTAAGG the “relative binding free energy” value was 0.22 kcal/mol.
TCTGTCACGTGGTGTT was tested, and the “relative binding free energy” value was 0.03 kcal/mol.
CAGTGCACGTGTATGG was tested, and the “relative binding free energy” value was 0.12 kcal/mol.
GCTTGCACGTGGGTAG was tested, and the “relative binding free energy” value was -0.03 kcal/mol.
CGTGTCACGTGGAATT was tested, and the “relative binding free energy” value was 0.23 kcal/mol.
TGAGACACGTGTATAT was tested, and the “relative binding free energy” value was 0.11 kcal/mol.
In the case of AATTACACGTGGGTTA, the “relative binding free energy” value is reported as 0.08 kcal/mol.
For AGTAACACGTGTAAGG, the “relative binding free energy” value was 0.2 kcal/mol.
With CTTGACACGTGGGATA the “relative binding free energy” value was 0.02 kcal/mol.
With TAGATCACGTGTCTTT the “relative binding free energy” value was 0.2 kcal/mol.
In the case of GCAGTCACGTGAGTTG, the “relative binding free energy” value is reported as 0.21 kcal/mol.
With ATATACACGTGTGTTG the “relative binding free energy” value was -0.07 kcal/mol.
For TCAGTCACGTGAGGGA, the “relative binding free energy” value was 0.21 kcal/mol.
For TTAGTCACGTGAACGT, the “relative binding free energy” value was 0.16 kcal/mol.
For ATGGTCACGTGATGAG, the “relative binding free energy” value was 0.25 kcal/mol.
In the case of TGAATCACGTGTATGT, the “relative binding free energy” value is reported as 0.06 kcal/mol.
In the case of GGGAGCACGTGTTTAT, the “relative binding free energy” value is reported as -0.16 kcal/mol.
ATCGGCACGTGGCATG was tested, and the “relative binding free energy” value was -0.18 kcal/mol.
TTATACACGTGGAATA was tested, and the “relative binding free energy” value was 0.08 kcal/mol.
For GGGGGCACGTGGGGTT, the “relative binding free energy” value was -0.13 kcal/mol.
With GTCTTCACGTGATTAA the “relative binding free energy” value was 0.47 kcal/mol.
GTTGTCACGTGAGGTG was tested, and the “relative binding free energy” value was 0.16 kcal/mol.
In the case of GTATACACGTGTGTAT, the “relative binding free energy” value is reported as -0.02 kcal/mol.
With GGGTGCACGTGAGGCA the “relative binding free energy” value was 0.19 kcal/mol.
With AGGAGCACGTGGGAGT the “relative binding free energy” value was -0.12 kcal/mol.
For CTTTGCACGTGATGGA, the “relative binding free energy” value was 0.07 kcal/mol.
With TTGCTCACGTGGCGGG the “relative binding free energy” value was 0.2 kcal/mol.
For CTTGGCACGTGTCTTT, the “relative binding free energy” value was -0.09 kcal/mol.
With TGTTTCACGTGCTTTA the “relative binding free energy” value was 0.17 kcal/mol.
For TAAGTCACGTGAGGTG, the “relative binding free energy” value was 0.27 kcal/mol.
For TTTTTCACGTGGGAAA, the “relative binding free energy” value was 0.17 kcal/mol.
With CGTTGCACGTGTTGGT the “relative binding free energy” value was 0.04 kcal/mol.
GGTACCACGTGCTGGG was tested, and the “relative binding free energy” value was -0.14 kcal/mol.
TTAGACACGTGTACGT was tested, and the “relative binding free energy” value was 0.03 kcal/mol.
In the case of GGTTACACGTGGTGAC, the “relative binding free energy” value is reported as 0.13 kcal/mol.
With AGTTGCACGTGGGGTC the “relative binding free energy” value was -0.09 kcal/mol.
GCTTTCACGTGGTTTT was tested, and the “relative binding free energy” value was 0.42 kcal/mol.
With CGGATCACGTGAGTAT the “relative binding free energy” value was 0.44 kcal/mol.
In the case of TAAAGCACGTGATGGA, the “relative binding free energy” value is reported as 0.05 kcal/mol.
TATATCACGTGTGCAT was tested, and the “relative binding free energy” value was 0.08 kcal/mol.
AGTGCCACGTGTTAAT was tested, and the “relative binding free energy” value was 0 kcal/mol.
For TTATCCACGTGATGGT, the “relative binding free energy” value was 0.25 kcal/mol.
In the case of CGTGTCACGTGGTGGG, the “relative binding free energy” value is reported as 0.05 kcal/mol.
GTCGACACGTGGGGTA was tested, and the “relative binding free energy” value was -0.11 kcal/mol.
For CTCGCCACGTGGGGGT, the “relative binding free energy” value was -0.29 kcal/mol.
For CGGGTCACGTGCGGGT, the “relative binding free energy” value was 0.07 kcal/mol.
In the case of TGGTTCACGTGGCTCT, the “relative binding free energy” value is reported as 0.14 kcal/mol.
For TAGAGCACGTGTAAGA, the “relative binding free energy” value was 0.06 kcal/mol.
With ATGGACACGTGGGTAT the “relative binding free energy” value was 0 kcal/mol.
AAAGGCACGTGAGTGG was tested, and the “relative binding free energy” value was -0.03 kcal/mol.
For AAGTTCACGTGTTTGT, the “relative binding free energy” value was 0.31 kcal/mol.
In the case of AATCGCACGTGAGTTT, the “relative binding free energy” value is reported as 0.14 kcal/mol.
For ACTTGCACGTGTTGTG, the “relative binding free energy” value was 0.04 kcal/mol.
With CAAGTCACGTGGGGGA the “relative binding free energy” value was -0.08 kcal/mol.
In the case of TGTAACACGTGGGGAC, the “relative binding free energy” value is reported as 0.02 kcal/mol.
With GGCTACACGTGGAGGT the “relative binding free energy” value was 0.08 kcal/mol.
For CGTGTCACGTGTCTAG, the “relative binding free energy” value was 0.14 kcal/mol.
AATATCACGTGCGGTG was tested, and the “relative binding free energy” value was 0.07 kcal/mol.
TGGTTCACGTGTGAGC was tested, and the “relative binding free energy” value was 0.29 kcal/mol.

Reference: the BET-seq Pho4 binding data (Le et al. 2018)
